# Laboratory results as given in the supplement of paper PMC8728848.
# The list shows a part of the results.
# B1: Tachylectin-2 (Tachypleus tridentatus), TAL2_TACTR (protein)
# chain: VGGESMLRGVYQDKFYQGTYPQNKNDNWLARATLIGKGGWSNFKFLFLSPGGELYGVLNDKIYKGTPPTHDNDNWMGRAKKIGNGGWNQFQFLFFDPNGYLYAVSKDKLYKASPPQSDTDNWIARATEIGSGGWSGFKFLFFHPNGYLYAVHGQQFYKALPPVSNQDNWLARATKIGQGGWDTFKFLFFSSVGTLFGVQGGKFYEDYPPSYAHDNWLARAKLIGNGGWDDFRFLFF
# Legend:
# Assay in all cases: glycan array binding signal (z-score within array); higher = stronger binding
# Conditions in all cases: glycan notation: IUPAC condensed, linker removed
# [1] = target: Gal(b1-3)GalNAc
# In short: (§1)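 Glycan array data came from 3228 arrays in the Consortium for Functional Glycomics database, and only arrays with an available protein sequence were kept. Glycan names were put into IUPAC-condensed notation, and columns mapping to the same glycan were averaged. The binding signal is a within-array Z-score, averaged across arrays of one protein sequence run at different concentrations or buffers and across linkers. A negative Z-score can be read as non-binding.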
# [2] = target: Gal(b1-3)GalNAc(a1-3)[Fuc(a1-2)]Gal(b1-4)Glc
# In short: as §1
# [3] = target: Gal(b1-3)GalNAc(a1-3)[Fuc(a1-2)]Gal(b1-4)GlcNAc
# In short: as §1
# [4] = target: Gal(b1-3)GalNAc(b1-3)Gal(a1-4)Gal(b1-4)Glc
# In short: as §1
# [5] = target: Gal(b1-3)GalNAc(b1-4)Gal(b1-4)Glc
# In short: as §1
# [6] = target: Gal(b1-3)GalNAc(b1-4)[Neu5Ac(a2-3)]Gal(b1-4)Glc
# In short: as §1
# [7] = target: Gal(b1-3)GlcNAc
# In short: as §1
# [8] = target: Gal(b1-3)GlcNAc(a1-6)Gal(b1-4)GlcNAc
# In short: as §1
# [9] = target: Gal(b1-3)GlcNAc(b1-2)Man(a1-3)[Gal(b1-3)GlcNAc(b1-2)Man(a1-6)]Man(b1-4)GlcNAc(b1-4)GlcNAc
# In short: as §1
# [10] = target: Gal(b1-3)GlcNAc(b1-2)Man(a1-3)[Gal(b1-3)GlcNAc(b1-2)Man(a1-6)]Man(b1-4)GlcNAc(b1-4)[Fuc(a1-6)]GlcNAc
# In short: as §1
# [11] = target: Gal(b1-3)GlcNAc(b1-3)Gal(b1-3)GlcNAc
# In short: as §1
# [12] = target: Gal(b1-3)GlcNAc(b1-3)Gal(b1-4)Glc
# In short: as §1
# [13] = target: Gal(b1-3)GlcNAc(b1-3)Gal(b1-4)GlcNAc
# In short: as §1
# [14] = target: Gal(b1-3)GlcNAc(b1-3)Gal(b1-4)GlcNAc(b1-6)[Gal(b1-3)GlcNAc(b1-3)]Gal(b1-4)Glc
# In short: as §1
# [15] = target: Gal(b1-3)GlcNAc(b1-3)Gal(b1-4)[Fuc(a1-3)]GlcNAc(b1-6)[Gal(b1-3)GlcNAc(b1-3)]Gal(b1-4)Glc
# In short: as §1
# [16] = target: Gal(b1-3)GlcNAc(b1-3)GalNAc
# In short: as §1
# [17] = target: Gal(b1-3)GlcNAc(b1-6)Gal(b1-4)GlcNAc
# In short: as §1
# [18] = target: Gal(b1-3)[Fuc(a1-4)]GlcNAc
# In short: as §1
# [19] = target: Gal(b1-3)[Fuc(a1-4)]GlcNAc(b1-2)Man(a1-3)[Gal(b1-3)[Fuc(a1-4)]GlcNAc(b1-2)Man(a1-6)]Man(b1-4)GlcNAc(b1-4)GlcNAc
# In short: as §1
# [20] = target: Gal(b1-3)[Fuc(a1-4)]GlcNAc(b1-2)Man(a1-3)[Gal(b1-3)[Fuc(a1-4)]GlcNAc(b1-2)Man(a1-6)]Man(b1-4)GlcNAc(b1-4)[Fuc(a1-6)]GlcNAc
# In short: as §1
# [21] = target: Gal(b1-3)[Fuc(a1-4)]GlcNAc(b1-3)Gal(b1-3)[Fuc(a1-4)]GlcNAc
# In short: as §1
# [22] = target: Gal(b1-3)[Fuc(a1-4)]GlcNAc(b1-3)Gal(b1-4)GlcNAc
# In short: as §1
# [23] = target: Gal(b1-3)[Fuc(a1-4)]GlcNAc(b1-3)Gal(b1-4)[Fuc(a1-3)]GlcNAc
# In short: as §1
# [24] = target: Gal(b1-3)[GlcNAc(b1-6)]GalNAc
# In short: as §1
# [25] = target: Gal(b1-3)[Neu5Ac(a2-6)]GalNAc
# In short: as §1
# [26] = target: Gal(b1-3)[Neu5Ac(a2-6)]GlcNAc(b1-6)Gal(b1-4)Glc
# In short: as §1
# [27] = target: Gal(b1-3)[Neu5Ac(b2-6)]GalNAc
# In short: as §1
# [28] = target: Gal(b1-4)GalNAc(a1-3)[Fuc(a1-2)]Gal(b1-4)GlcNAc
# In short: as §1
# [29] = target: Gal(b1-4)GalNAc(b1-3)[Fuc(a1-2)]Gal(b1-4)GlcNAc
# In short: as §1
# [30] = target: Gal(b1-4)Glc
# In short: as §1
# [31] = target: Gal(b1-4)Glc6S
# In short: as §1
# [32] = target: Gal(b1-4)GlcNAc
# In short: as §1
# [33] = target: Gal(b1-4)GlcNAc(a1-6)Gal(b1-4)GlcNAc
# In short: as §1
# [34] = target: Gal(b1-4)GlcNAc(b1-2)Man(a1-3)Man(b1-4)GlcNAc(b1-4)GlcNAc
# In short: as §1
# [35] = target: Gal(b1-4)GlcNAc(b1-2)Man(a1-3)[Gal(b1-4)GlcNAc(b1-2)Man(a1-6)]Man(b1-4)GlcNAc(b1-4)GlcNAc
# In short: as §1
# [36] = target: Gal(b1-4)GlcNAc(b1-2)Man(a1-3)[Gal(b1-4)GlcNAc(b1-2)Man(a1-6)]Man(b1-4)GlcNAc(b1-4)[Fuc(a1-6)]GlcNAc
# In short: as §1
# [37] = target: Gal(b1-4)GlcNAc(b1-2)Man(a1-3)[GlcNAc(b1-2)Man(a1-6)]Man(b1-4)GlcNAc(b1-4)GlcNAc
# In short: as §1
# [38] = target: Gal(b1-4)GlcNAc(b1-2)Man(a1-3)[Man(a1-6)]Man(b1-4)GlcNAc(b1-4)GlcNAc
# In short: as §1
# [39] = target: Gal(b1-4)GlcNAc(b1-2)Man(a1-6)Man(b1-4)GlcNAc(b1-4)GlcNAc
# In short: as §1
# [40] = target: Gal(b1-4)GlcNAc(b1-2)Man(a1-6)[GlcNAc(b1-2)Man(a1-3)]Man(b1-4)GlcNAc(b1-4)GlcNAc
# In short: as §1
# [41] = target: Gal(b1-4)GlcNAc(b1-2)Man(a1-6)[Man(a1-3)]Man(b1-4)GlcNAc(b1-4)GlcNAc
# In short: as §1
# [42] = target: Gal(b1-4)GlcNAc(b1-2)[Gal(b1-4)GlcNAc(b1-4)]Man(a1-3)[Gal(b1-4)GlcNAc(b1-2)Man(a1-6)]Man(b1-4)GlcNAc(b1-4)GlcNAc
# In short: as §1
# [43] = target: Gal(b1-4)GlcNAc(b1-2)[Gal(b1-4)GlcNAc(b1-4)]Man(a1-3)[Gal(b1-4)GlcNAc(b1-2)[Gal(b1-4)GlcNAc(b1-6)]Man(a1-6)]Man(b1-4)GlcNAc(b1-4)GlcNAc
# In short: as §1
# [44] = target: Gal(b1-4)GlcNAc(b1-3)Gal(b1-3)GlcNAc
# In short: as §1
# [45] = target: Gal(b1-4)GlcNAc(b1-3)Gal(b1-4)Glc
# In short: as §1
binder,measurement,setting,value
B1,glycan array binding signal (z-score),[1],-0.325
same,glycan array binding signal (z-score),[2],-0.293
same,glycan array binding signal (z-score),[3],-0.294
same,glycan array binding signal (z-score),[4],-0.286
same,glycan array binding signal (z-score),[5],-0.207
same,glycan array binding signal (z-score),[6],-0.324
same,glycan array binding signal (z-score),[7],-0.244
same,glycan array binding signal (z-score),[8],-0.297
same,glycan array binding signal (z-score),[9],-0.325
same,glycan array binding signal (z-score),[10],-0.286
same,glycan array binding signal (z-score),[11],-0.341
same,glycan array binding signal (z-score),[12],-0.315
same,glycan array binding signal (z-score),[13],-0.357
same,glycan array binding signal (z-score),[14],-0.293
same,glycan array binding signal (z-score),[15],-0.294
same,glycan array binding signal (z-score),[16],-0.294
same,glycan array binding signal (z-score),[17],-0.295
same,glycan array binding signal (z-score),[18],-0.291
same,glycan array binding signal (z-score),[19],-0.279
same,glycan array binding signal (z-score),[20],-0.292
same,glycan array binding signal (z-score),[21],-0.338
same,glycan array binding signal (z-score),[22],-0.351
same,glycan array binding signal (z-score),[23],-0.22
same,glycan array binding signal (z-score),[24],-0.2
same,glycan array binding signal (z-score),[25],-0.192
same,glycan array binding signal (z-score),[26],-0.192
same,glycan array binding signal (z-score),[27],-0.221
same,glycan array binding signal (z-score),[28],-0.204
same,glycan array binding signal (z-score),[29],-0.29
same,glycan array binding signal (z-score),[30],-0.308
same,glycan array binding signal (z-score),[31],-0.341
same,glycan array binding signal (z-score),[32],-0.262
same,glycan array binding signal (z-score),[33],-0.207
same,glycan array binding signal (z-score),[34],-0.295
same,glycan array binding signal (z-score),[35],-0.201
same,glycan array binding signal (z-score),[36],-0.294
same,glycan array binding signal (z-score),[37],-0.295
same,glycan array binding signal (z-score),[38],-0.294
same,glycan array binding signal (z-score),[39],-0.292
same,glycan array binding signal (z-score),[40],-0.291
same,glycan array binding signal (z-score),[41],-0.294
same,glycan array binding signal (z-score),[42],-0.293
same,glycan array binding signal (z-score),[43],-0.294
same,glycan array binding signal (z-score),[44],-0.348
same,glycan array binding signal (z-score),[45],-0.209
